# Test results published in PubChem BioAssay (Tox21).
# “And” between values parts separate entries of the source, which are not always exact repeats. Equal entries are not always repeated. The shares of active, inactive and inconclusive entries below differ from those in the screen. For part of these data: Where the call is inconclusive, the potency comes from a doubtful curve fit. A structure can be active in one record and inactive in another. The source made the active and inactive calls. Unless noted, the call rests on the fitted dose curve; in most records, active means well fitted curve in the direction sought with a large enough effect in the repeat runs; inconclusive means weak or mixed curves; inactive means no such curve, though single readings can be large; an effect the other way counts as inactive or inconclusive.
# Tests used:
# [1] = qHTS assay for identifying genotoxic compounds that show differential cytotoxicity against isogenic chicken DT40 cell lines with known DNA damage response pathways - wild type cell line (AID 743012); conditions: DT40 wild type chicken cells viability, CellTiter-Glo, 40 h; activity change, negative = cytotoxicity: at 68.4 µM (top of the series) unless noted; further: nearly all actives have a fitted effect of over 60% in size; further: potency means the concentration at half of the fitted maximal effect
# Outline: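 300 wt DT40 cells/well; cpd (DMSO) pintool-transferred after ~0.5 h at 37 C/5% CO2; 40 h incubation; CellTiter-Glo added, 30 min RT; luminescence read.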
# [2] = qHTS assay for identifying genotoxic compounds that show differential cytotoxicity against isogenic chicken DT40 cell lines with known DNA damage response pathways - Rev3 mutant cell line (AID 743014); conditions: chicken DT40 Rev3-/- viability, CellTiter-Glo, 40 h; activity, negative = cytotoxicity: at 68.4 µM (top of the series) unless noted; further: nearly all actives have a fitted effect of over 55% in size; further: potency means the concentration at half of the fitted maximal effect; on activity, negative = cytotoxicity: on the % scale 0 is the no-effect control and ±100 the full control effect
# [3] = qHTS assay to identify small molecule antagonists of the thyroid receptor (TR) signaling pathway - cell viability counter screen (AID 743064); conditions: GH3.TRE-Luc viability, CellTiter-Fluor, 24 h; activity change, negative = cytotoxic: at 70.3 µM (top of the series) unless noted; further: nearly all actives have a fitted effect of over 50% in size; further: potency means the concentration at half of the fitted maximal effect; on activity change, negative = cytotoxic: on the % scale 0 is the no-effect control and ±100 the full control effect
# Outline: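 Fluorescence from CellTiter-Fluor, added after 23.5 h exposure at 37 °C, reported viability of GH3.TRE-Luc cells co-treated with compound and 1 nM T3. Measured in the same wells as the luciferase TR readout.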
# [4] = qHTS assay to identify small molecule antagonists of the thyroid receptor (TR) signaling pathway (AID 743065); further: nearly all actives have a fitted effect of over 55% in size; further: potency means the concentration at half of the fitted maximal effect; on activity, negative = inhibition: on the % scale 0 is the no-effect control and ±100 the full control effect
# Outline: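 Antagonism measured as loss of luciferase signal in GH3 cells stably carrying a TRE-luciferase reporter, co-treated with compound and T3 (1 nM final) for 23.5 h at 37 C. Viability was read in the same well by CellTiter-Fluor.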
# Aromatase (Homo sapiens) = Aromatase (Homo sapiens) (UniProt P11511); test: qHTS assay to identify aromatase inhibitors (AID 743083); further: nearly all actives have a fitted effect of over 55% in size; further: potency means the concentration at half of the fitted maximal effect
# [5] = qHTS assay to identify aromatase inhibitors - cell viability counter screen (AID 743084); conditions: MCF-7 aro ERE viability, CellTiter-Fluor, 24 h; activity change, negative = cytotoxicity: at 70.3 µM (top of the series);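 further: cells stimulated with testosterone during compound exposure; nearly all actives have a fitted effect of over 55% in size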; further: potency means the concentration at half of the fitted maximal effect; on activity change, negative = cytotoxicity: on the % scale 0 is the no-effect control and ±100 the full control effect
# [6] = qHTS assay to identify small molecule antagonists of the estrogen receptor alpha (ER-alpha) signaling pathway - cell viability counter screen (AID 743074; calls by dose curve; further: nearly all actives have a fitted effect of over 45% in size; further: potency means the concentration at half of the fitted maximal effect)
# [7] = molecular target: Estrogen receptor (Homo sapiens) (UniProt P03372); test: qHTS assay to identify small molecule agonists of the estrogen receptor alpha (ER-alpha) signaling pathway using the BG1 cell line (AID 743079); conditions: BG1Luc4E2 cells, ERE-luciferase agonist, 22 h; activation: at 70.3 µM (top of the series) unless noted; further: nearly all actives have a fitted effect of over 20% in size; further: potency means the concentration at half of the fitted maximal effect
# [8] = qHTS assay to identify small molecule antagonists of the estrogen receptor alpha (ER-alpha) signaling pathway using the BG1 cell line (AID 743080; calls by dose curve;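 further: BG1 cells stimulated with 17beta-estradiol alongside compound; nearly all actives have a fitted effect of over 25% in size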; further: potency means the concentration at half of the fitted maximal effect); conditions: BG1Luc4E2 ERE-luciferase antagonist mode, luminescence; activity change, negative = inhibition: at 70.3 µM (top of the series) unless noted
# Outline: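 BG1Luc4E2, endogenous ER-alpha, 4xERE-luc; 5 d charcoal-stripped FBS, phenol red free; 24 h plating; cpd + 17beta-estradiol 21.5 h, 37 C/5% CO2; CellTiter-Fluor viability 30 min, then ONE-Glo luciferase 30 min RT.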
# [9] = qHTS assay to identify small molecule antagonists of the androgen receptor (AR) signaling pathway using the MDA cell line - cell viability counter screen (AID 743041; further: on the % scale 0 is the no-effect control and ±100 the full control effect; nearly all actives have a fitted effect of over 45% in size); conditions: MDA-kb2 viability, CellTiter-Fluor, 16 h, cells co-treated with R1881 androgen agonist; viability change, negative = cytotoxic: at 70.3 µM (top of the series) unless noted
# Outline: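 Using the breast carcinoma line MDA-kb2 AR-luc, test chemicals were co-incubated with R1881 for 16 h; CellTiter-Fluor reagent, added at 15.5 h, provided a fluorescence measure of live cells.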
# [10] = qHTS assay to identify small molecule antagonists of the estrogen receptor alpha (ER-alpha) signaling pathway using the BG1 cell line - cell viability counter screen (AID 743081);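 further: compound given together with 17beta-estradiol as the ER stimulus; potency means the concentration at half of the fitted maximal effect; nearly all actives have a fitted effect of over 45% in size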
# [11] = molecular target: Estrogen receptor (Homo sapiens) (UniProt P03372); test: qHTS assay to identify small molecule antagonists of the estrogen receptor alpha (ER-alpha) signaling pathway (AID 743069; active means well fitted curve in the direction sought with a large enough effect in the signal ratio in the repeat runs, not every such curve was filed as active; inconclusive means weak or mixed curves, or effect the other way; inactive means no such curve, though single readings can be large or run the other way; the % refers to the signal ratio; further: potency means the concentration at half of the fitted maximal effect); conditions: HEK293 ER-alpha-UAS-bla, beta-lactamase ratio, antagonist mode; activity, negative = inhibition: at 69.4 µM (top of the series) unless noted
# Outline: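 Fluorescence intensity from a beta-lactamase FRET substrate served as the read-out. Cells: HEK293 with stably integrated ER-alpha-UAS-bla reporter. Agonist 17beta-estradiol was co-added with compounds; incubation 18 hr at 37C, substrate 2 hr at room temperature.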
# [12] = molecular target: Estrogen receptor (Homo sapiens) (UniProt P03372); test: qHTS assay to identify small molecule agonists of the estrogen receptor alpha (ER-alpha) signaling pathway (AID 743075; calls by dose curve; further: potency means the concentration at half of the fitted maximal effect)
# Tags describe the fitted curve by direction and shape or compound fluorescence and quenching.
# Chain of UniProt P03372 (P03372 whole entry, looked up): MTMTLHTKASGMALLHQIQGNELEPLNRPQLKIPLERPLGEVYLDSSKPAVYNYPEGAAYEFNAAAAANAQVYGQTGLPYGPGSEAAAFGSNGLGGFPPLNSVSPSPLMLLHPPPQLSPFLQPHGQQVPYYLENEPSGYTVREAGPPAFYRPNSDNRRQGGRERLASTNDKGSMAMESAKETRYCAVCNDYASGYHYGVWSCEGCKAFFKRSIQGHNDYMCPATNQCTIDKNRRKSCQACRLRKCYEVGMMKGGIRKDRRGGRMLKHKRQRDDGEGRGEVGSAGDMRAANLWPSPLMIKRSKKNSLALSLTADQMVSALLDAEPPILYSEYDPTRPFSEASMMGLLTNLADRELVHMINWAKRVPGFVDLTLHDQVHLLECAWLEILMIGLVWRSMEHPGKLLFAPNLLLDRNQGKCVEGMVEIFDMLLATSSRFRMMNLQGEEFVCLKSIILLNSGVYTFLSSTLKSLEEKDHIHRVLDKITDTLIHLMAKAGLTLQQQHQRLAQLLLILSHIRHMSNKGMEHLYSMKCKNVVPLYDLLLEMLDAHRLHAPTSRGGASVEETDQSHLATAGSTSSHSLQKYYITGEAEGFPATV
# Chain of UniProt P11511 (P11511 whole entry, looked up): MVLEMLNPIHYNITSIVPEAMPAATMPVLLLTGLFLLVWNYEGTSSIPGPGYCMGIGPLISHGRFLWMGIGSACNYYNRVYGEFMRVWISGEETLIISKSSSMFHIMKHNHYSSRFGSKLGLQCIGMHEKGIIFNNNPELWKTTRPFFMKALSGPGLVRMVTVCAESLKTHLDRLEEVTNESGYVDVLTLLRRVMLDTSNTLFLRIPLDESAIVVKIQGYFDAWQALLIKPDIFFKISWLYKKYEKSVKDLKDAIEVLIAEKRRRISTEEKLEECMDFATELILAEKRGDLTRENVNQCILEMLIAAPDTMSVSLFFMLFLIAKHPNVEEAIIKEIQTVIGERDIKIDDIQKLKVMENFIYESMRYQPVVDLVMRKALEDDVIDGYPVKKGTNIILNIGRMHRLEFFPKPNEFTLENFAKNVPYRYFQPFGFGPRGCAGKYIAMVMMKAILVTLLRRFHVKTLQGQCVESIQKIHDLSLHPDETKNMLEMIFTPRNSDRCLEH
smiles,measurement,setting,value
CC/C=C\C/C=C\C/C=C\CCCCCCCC(=O)OCC,Potency,[1],"inconclusive: 70.1 µM [cytotoxic, single point]"
same,Potency,[2],"inconclusive: 70.1 µM [cytotoxic, single point]"
same,Potency,[3],inactive
same,Potency,[4],"inconclusive: 70.1 µM [inhibitor, single point]"
same,Potency,Aromatase (Homo sapiens),"inconclusive: 70.1 µM [inhibitor, single point]"
same,Potency,[5],"inconclusive: 70.1 µM [cytotoxic, single point]"
CC(C)(C)CC(C)(C)c1ccc(Nc2ccc(C(C)(C)CC(C)(C)C)cc2)cc1,Potency,[1],"inconclusive: 0.0674 µM [rising, single point]"
same,"activity, negative = cytotoxicity",[2],inactive: 3.12% [at 8.53 µM]
same,"activity, negative = inhibition",[4],inactive: 9.26% [at 8.44 µM]
same,"activity change, negative = cytotoxicity",[5],inactive: 3.33% [at 8.47 µM]
COc1cc(C(=S)N2CCOCC2)cc(OC)c1OC,Potency,[1],inactive
same,Potency,[2],"inconclusive: 26.6 µM [rising, partial curve, poor fit]"
same,Potency,[4],inactive
COC(=O)C(C)=O,Potency,[1],inactive
same,Potency,[2],inactive
same,Potency,[6],inactive
same,Potency,[7],inactive
same,Potency,[8],inactive
NS(=O)(=O)c1cc(C(=O)O)c(NCc2ccco2)cc1Cl,Potency,[1],"inconclusive: 26.6 µM [rising, partial curve, poor fit]"
same,Potency,[2],"inconclusive: 21.1 µM [rising, partial curve, poor fit]"
same,Potency,[9],inactive
same,Potency,[6],"inconclusive: 24.5 µM [cytotoxic, full curve, poor fit]"
same,Potency,[7],active: 15 µM
CCOC(=O)Nc1ccc(NCc2ccc(F)cc2)nc1N,Potency,[1],active: 26.6 µM
same,Potency,[2],"inactive and inconclusive: 33.5 µM [cytotoxic, single point]"
same,Potency,[4],"inconclusive: 11.9 µM [inhibitor, partial curve, poor fit]"
same,Potency,[7],active: 3.35 µM and inactive
same,Potency,[8],inactive
same,Potency,[10],"inconclusive: 11.9 µM [cytotoxic, single point]"
COc1cc([C@H]2Oc3cc([C@H]4Oc5cc(O)cc(O)c5C(=O)[C@@H]4O)ccc3O[C@@H]2CO)ccc1O,Potency,[1],"inconclusive: 68.4 µM [cytotoxic, single point]"
same,Potency,[2],"inconclusive: 68.4 µM [cytotoxic, single point]"
same,Potency,[3],inactive
same,Potency,[4],"inconclusive: 21.1 µM [inhibitor, partial curve, poor fit]"
same,Potency,[11],inconclusive: 23.9 µM [fluorescent] and inconclusive: 38.8 µM [fluorescent]
same,Potency,[7],"inconclusive: 60.9 µM [inhibitor, partial curve, poor fit]"
same,Potency,Aromatase (Homo sapiens),"inconclusive: 26.6 µM [inhibitor, partial curve, poor fit]"
same,Potency,[5],"inconclusive: 54.3 µM [cytotoxic, partial curve]"
CC(=O)OCC1=C(C(=O)O)N2C(=O)[C@@H](NC(=O)Cc3cccs3)[C@H]2SC1,Potency,[1],"inconclusive: 6.68 µM [rising, single point]"
same,Potency,[2],"inconclusive: 29.8 µM [rising, partial curve, poor fit]"
same,Potency,[3],inactive
c1ccc(CNc2ncnc3c2ncn3C2CCCCO2)cc1 (stereo not given),Potency,[1],"inconclusive: 68.6 µM [cytotoxic, single point]"
same,Potency,[2],"inconclusive: 34.4 µM [cytotoxic, partial curve]"
same,Potency,[12],inactive
same,Potency,[7],active: 3.44 µM
same,Potency,[8],"inconclusive: 4.33 µM [rising, full curve]"
O=C(O)c1ccccc1,Potency,[1],inactive
same,Potency,[2],"inconclusive: 77 µM [cytotoxic, partial curve, poor fit]"
same,Potency,[3],inactive
same,Potency,[11],inactive
same,Potency,[12],inconclusive: 57.7 µM
same,Potency,[7],active: 5.1 µM and inactive
same,Potency,Aromatase (Homo sapiens),inactive
Cc1ccc2c(c1[N+](=O)[O-])C(=O)c1ccccc1C2=O,Potency,[1],"inconclusive: 15.1 µM [rising, single point]"
same,Potency,[2],"inconclusive: 13.4 µM [cytotoxic, partial curve]"
same,Potency,[3],"inconclusive: 30 µM [cytotoxic, partial curve, poor fit]"
same,Potency,[4],"inconclusive: 33.7 µM [inhibitor, single point]"
same,Potency,[11],"inconclusive: 539 nM [rising, full curve]"
same,Potency,[6],inactive
same,Potency,[8],"inconclusive: 3.78 µM [rising, full curve]"
same,Potency,[5],"inconclusive: 0.847 µM [cytotoxic, full curve]"
